Assay results as given in the supplement of paper PMC12217912.
This is one part of the list. Sequences were assembled here from the parent chain. Inactive controls read about 0.05.

B1: TEV protease; numbered along this chain (parent)
chain: MGESLFKGPRDYNPISSSICHLTNESDGHTTSLYGIGFGPFIITNKHLFRRNNGTLVVQSLHGVFKVKDTTTLQQHLVDGRDMIIIRMPKDFPPFPQKLKFREPQREERICLVTTNFQTKSMSSMVSDTSCTFPSGDGIFWKHWIQTKDGQCGSPLVSTRDGFIVGIHSASNFTNTNNYFTSVPKNFMELLTNQEAQQWVSGWRLNADSVLWGGHKVFMVKPEEPFQPVKEATQL

Variants of: B1
Assay: raw area under fraction-flipped curve 0-4 h after induction (AUC4h, not background-subtracted), DNA-recorder readout of cleavage of the substrate (dimensionless); higher = more cleavage of the substrate by the protease variant
Details: temperature: 34 °C; time window: 0-4 h after rhamnose induction
Procedure: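 In vivo DNA recorder in E. coli TOP10(DE3) ΔrhaA at 34 °C. Each TEVp single-site mutant (parent TEVp 0) is paired with a single-site variant of the 7-mer TEVs (canonical ENLYFQ|S). The substrate sits between flexible linkers in a Bxb1-sfGFP-TEVs-SsrA fusion, so cleavage stabilises Bxb1 and speeds flipping of a recombination array, read by NGS. The value is the raw area under the fraction-flipped curve over 0-4 h after rhamnose induction (AUC4h), with ≥20 reads per time point. It is not background-subtracted; inactive controls average about 0.047.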
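Further: Bxb1 expression induced with 0.2% (w/v) L-rhamnose at OD600 near 0.5, cultures sampled hourly, flipped fraction per protease–substrate barcode pair counted by paired-end Illumina sequencing.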

Variant | area with substrate ENLYFAS | area with substrate ENLYFCS | area with substrate ENLYFDS | area with substrate ENLYFES | area with substrate ENLYFFS | area with substrate ENLYFGS | area with substrate ENLYFHS | area with substrate ENLYFIS | area with substrate ENLYFKS | area with substrate ENLYFMS | area with substrate ENLYFNS | area with substrate ENLYFPS | area with substrate ENLYFRS | area with substrate ENLYFTS | area with substrate ENLYFVS | area with substrate ENLYFWS | area with substrate ENLYFLS | area with substrate ENLYFSS | area with substrate ENLYFYS
Q151E | 0.0433 | 0.0501 | 0.0677 | 0.0667 | 0.0674 | 0.0568 | 0.0514 | 0.0605 | 0.0688 | 0.0748 | 0.0637 | 0.0647 | 0.0628 | 0.0631 | 0.0403 | 0.0628 |  |  | 
D149Y | 0.0458 | 0.0453 | 0.074 | 0.0626 | 0.0652 | 0.0639 | 0.0629 | 0.0488 |  | 0.0547 | 0.0593 | 0.0612 | 0.0608 | 0.0437 | 0.0676 | 0.0679 | 0.0501 | 0.0538 | 0.0532
P134G | 0.0674 |  |  | 0.0642 |  |  | 0.0691 | 0.0638 | 0.0569 |  |  |  |  |  |  |  |  | 0.0422 | 
P134D | 0.0572 | 0.0592 | 0.0565 | 0.059 | 0.0707 | 0.0711 | 0.0635 | 0.0598 | 0.0546 | 0.0619 | 0.0647 | 0.062 | 0.0617 | 0.0676 | 0.0467 |  | 0.0558 | 0.0574 | 0.0566
W141I | 0.0676 |  |  | 0.0526 | 0.054 |  | 0.0634 | 0.0617 | 0.0576 | 0.0603 | 0.0595 | 0.0655 |  |  |  |  |  |  | 0.0343
W141A | 0.0521 |  |  | 0.0608 | 0.0621 |  |  | 0.0593 | 0.0494 | 0.0374 | 0.0597 | 0.052 | 0.0375 |  | 0.0543 |  |  | 0.0621 | 0.0476
W141P | 0.0597 | 0.0577 | 0.0601 | 0.0514 |  | 0.0442 |  | 0.0571 | 0.0558 | 0.0566 |  | 0.0522 | 0.0632 | 0.0528 | 0.0615 |  | 0.0514 | 0.0052 | 0.0625
S127K | 0.0669 | 0.0489 |  | 0.0866 | 0.0717 | 0.048 | 0.0628 | 0.052 | 0.0547 | 0.0704 |  | 0.0617 |  |  | 0.0701 |  |  | 0.0424 | 
S127E | 0.065 | 0.0478 |  | 0.0716 | 0.0698 |  | 0.05 | 0.059 | 0.0673 | 0.0724 |  | 0.058 | 0.0584 | 0.0539 | 0.0308 | 0.0568 |  | 0.0627 | 
K148E | 0.0626 | 0.0749 | 0.0589 | 0.0672 | 0.0734 |  |  | 0.0505 | 0.0473 | 0.0703 | 0.0604 | 0.0633 | 0.082 | 0.0552 |  | 0.0581 |  | 0.0536 | 0.0631
K148R | 0.0579 | 0.0582 |  |  | 0.0798 |  | 0.0623 | 0.0732 |  | 0.0818 | 0.0304 | 0.0513 | 0.0575 | 0.0528 |  | 0.0497 | 0.0543 | 0.0708 | 
K148Q | 0.0551 | 0.0608 |  | 0.0651 | 0.0834 | 0.0674 | 0.0688 |  | 0.0587 | 0.0667 | 0.0615 | 0.0652 | 0.0585 |  | 0.061 |  | 0.0591 | 0.0596 | 
F133K | 0.053 |  |  | 0.0377 |  |  | 0.0669 | 0.0656 | 0.0609 |  |  | 0.0556 | 0.0948 | 0.0818 |  | 0.0506 |  | 0.0645 | 0.0624
S130Y | 0.069 | 0.0645 | 0.0671 | 0.0643 | 0.07 |  | 0.0696 | 0.0528 |  | 0.0645 | 0.0625 | 0.0562 | 0.0659 | 0.0608 | 0.0218 | 0.062 |  |  | 0.056
K142L | 0.0643 | 0.0613 |  | 0.0578 | 0.0769 |  | 0.0481 | 0.0697 |  | 0.0806 | 0.079 | 0.0627 | 0.0792 | 0.0566 |  | 0.0546 | 0.0598 | 0.0572 | 0.0614
T132A | 0.0759 | 0.0538 |  | 0.0584 | 0.0637 | 0.0506 |  | 0.0594 | 0.0564 | 0.0621 | 0.0507 | 0.0624 | 0.0838 |  | 0.0544 | 0.0482 | 0.0515 |  | 0.0424
G150H | 0.0526 | 0.0762 | 0.0608 | 0.0536 | 0.0823 | 0.0583 | 0.0519 | 0.0598 |  | 0.0565 | 0.0671 | 0.0617 | 0.0624 | 0.057 | 0.0623 |  | 0.0708 |  | 0.0554
I145K | 0.045 | 0.0533 | 0.0626 | 0.0485 | 0.0829 | 0.0522 | 0.0694 | 0.0625 | 0.0533 |  |  | 0.0543 | 0.0789 |  | 0.0562 | 0.0637 | 0.0703 | 0.0519 | 0.0599
S135R | 0.0551 | 0.0585 | 0.0466 | 0.0605 | 0.0673 |  | 0.0665 | 0.0583 | 0.0571 | 0.0613 | 0.0593 | 0.0673 | 0.0571 | 0.0648 | 0.0548 | 0.0581 | 0.0596 | 0.061 | 0.0508
T147Q | 0.0573 | 0.066 |  | 0.0571 | 0.0778 |  | 0.0681 |  |  | 0.0657 |  | 0.0629 | 0.0604 | 0.0589 | 0.0664 |  |  | 0.0569 | 0.0502
Q146C | 0.0534 |  | 0.0528 | 0.0686 | 0.0689 | 0.0477 |  | 0.0642 | 0.0499 | 0.09 | 0.0644 | 0.0683 | 0.0356 | 0.0527 | 0.0537 |  | 0.0455 | 0.0647 | 0.0535
Q146T | 0.0655 | 0.0667 |  | 0.0694 | 0.0566 |  |  | 0.0605 | 0.0728 | 0.0621 | 0.0597 | 0.0579 |  | 0.0262 | 0.0525 | 0.0598 | 0.0525 | 0.0305 | 
Q146K | 0.0588 | 0.0575 | 0.0619 | 0.0586 | 0.0696 | 0.0396 | 0.0431 | 0.058 | 0.0639 | 0.0757 | 0.0729 | 0.0696 |  | 0.062 | 0.0505 | 0.0561 | 0.0561 |  | 0.0887
V126A | 0.0575 | 0.0575 | 0.0537 | 0.0381 | 0.0468 |  | 0.0578 | 0.0517 | 0.057 | 0.0609 | 0.0568 | 0.0648 | 0.0612 | 0.0568 |  | 0.0505 | 0.054 |  | 0.0605
V126Y | 0.0604 | 0.0473 | 0.0658 | 0.0718 |  |  | 0.064 | 0.0626 |  | 0.0631 |  | 0.0575 | 0.0591 | 0.0653 |  | 0.0568 |  | 0.0618 | 
